Values marked as one replicate rest on one cluster of the flow cell; about a third of the high ones do not repeat.
System: ATP
Assay: switch fluorescence ratio, 500 uM ATP over buffer (Cy3 cluster intensity, sum of 5 cycles each) (fold (ratio)); higher = stronger signal-on switching upon ATP binding; sequences stand for … in TCGTCGGCAGCGTCAGATGTGTATAAGAGACAGTTTTTTTTTTTTTTTTTTTTTTTTT…TC
Settings: aptamer strand: ATP DNA aptamer (quencher-CACCTGGGGGAGTATTGCGGAGGAAGG + anchor), 100 nM annealed; ATP concentration: 500 uM; one replicate
Method in brief: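 Imaging in selection buffer was followed by imaging after 15 min with 500 uM ATP at 22 °C, for Cy3-labelled switching-strand clusters annealed to 100 nM quencher-labelled ATP aptamer on a modified Illumina MiSeq flow-cell. Five of these buffer/ATP cycles ran, separated by NaOH stripping and re-annealing. The fluorescence ratio per cluster is summed target-cycle over summed buffer-cycle Cy3 intensity, averaged per switch-domain sequence; clusters outside 100-1000 RFU were removed.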
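Also: ATP exposure 15 min at 22 °C before imaging.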

Row | Sequence | switch fluorescence ratio
1 | TTAGTGAGAA | 1.02
2 | ATCGGTTTAT | 1.11
3 | TAGTGTTACG | 1.01
4 | CGGTGGTCGT | 1.02
5 | TTAGTCTAAG | 1.01
6 | TCTTTATT | 0.994
7 | GCAGTTATAT | 1
8 | TGCCCTTCGC | 1.09
9 | TGAGGTTGG | 0.937
10 | CAAGGTTTCC | 1.01
11 | CAGAGTACGG | 0.963
12 | ACACAGGACT | 1.13
13 | ACACTTTGCA | 1.03
14 | GGACGGAATT | 1.1
15 | TGTACCGCCA | 1.17
16 | GGACGAAGGT | 1.01
17 | CTCGTTCATA | 0.984
18 | CGGCACCAGG | 4.41
19 | CGCGCTAATT | 1.04
20 | GGTCTTCGG | 1.01
21 | ATCCAAGGTT | 1.04
22 | ATTGTTGGAA | 0.95
23 | CGAAGTCTCC | 1.31

Row | Sequence | switch fluorescence ratio
24 | AAGTGGTCGC | 0.972
25 | TGCAAGATGA | 1.11
26 | GAGTGGCCTT | 0.998
27 | TTCTTGGCG | 0.984
28 | CTAGAGGCAT | 1.02
29 | TCGGGGCCCA | 1.03
30 | TGAAGAATAG | 0.972
31 | TGTTTTGCC | 1.01
32 | TCAGTCGCTA | 1.08
33 | TATAGACCAG | 1.03
34 | TCATTTAGAT | 1.01
35 | CGACTTTTCG | 1
36 | TTGGTGCTAA | 0.986
37 | CCGGGGACT | 1.43
38 | TATCGCCTA | 1
39 | ACGAGGGAC | 1.04
40 | GTGTGAAGGG | 1.02
41 | TAATCCAT | 0.974
42 | TGCGATTTCC | 1.08
43 | AGGATGTTTA | 0.976
44 | TCTACTTGTG | 1.01
45 | TTAGAGAGTA | 0.987
46 | CTCGATGACC | 0.982

Row | Sequence | switch fluorescence ratio
47 | CCAGCACTCA | 1.32
48 | GCTTTTTTGT | 0.968
49 | GTCGAACGGG | 1.05
50 | ATTACCTAAC | 1.36
51 | GACTGGGATG | 0.995
52 | CTTAAGGACT | 0.972
53 | TTCTTATACC | 1.08
54 | AGCTCTCCAC | 1.14
55 | GTAGGTTAAT | 0.999
56 | AGGTCGACC | 0.981
57 | ACTCCTTGCA | 1.7
58 | GACGTTGCAT | 1.01
59 | AACATACCTT | 1.31
60 | GCTATAACG | 1.07
61 | CGTTCACCG | 1
62 | AGAGTACAAA | 0.991
63 | TCGCAGTTTT | 1.06
64 | CAGCATCAAA | 1.02
65 | TATTTCGTTA | 0.959
66 | GAGACAATGC | 1.93
67 | ATGGGATGGT | 1.02
68 | GTTGACAAG | 1.04
69 | AACCGATCAG | 1.09

Row | Sequence | switch fluorescence ratio
70 | TTCTGCTAAT | 1.07
71 | GGATGGATCT | 0.977
72 | GGGCATGAC | 1.03
73 | GGCTCATTTT | 1.03
74 | CTCGTGTAAG | 1.02
75 | CAGGCGGGAA | 0.986
76 | CTCGGGGAGG | 1.03
77 | TTGATGGCCT | 1.05
78 | CAGCACGAAA | 1.09
79 | GGTAACTGG | 0.968
80 | CCCGGTTGTT | 1.02
81 | CGTTACCATT | 0.993
82 | ATGCAGCGTA | 1.01
83 | AGTGGGCTTA | 1.06
84 | GTCTGTAGTG | 0.968
85 | CGGCGCTAAG | 1.03
86 | GAGGCGATTA | 1.24
87 | TCGCAGACAG | 1
88 | CTGTGAATGC | 1.37
89 | CAGATTACCT | 1.15
90 | TGAAGCTTTC | 1.68
91 | GATGGTGGCG | 0.924
92 | TAGATTTTAC | 1.02

Row | Sequence | switch fluorescence ratio
93 | GGTCAGGCCA | 0.992
94 | AATTTGGTTC | 0.965
95 | CACGAAAATG | 1.03
96 | CGTTAATTCC | 1.07
97 | AGACATGCC | 1.07
98 | CGGGGTCTTG | 0.972
99 | ATCAAGATCT | 1.02
100 | GCCGATCAC | 1.01
101 | TTAATACCAT | 0.979
102 | GAATGTTCCG | 0.98
103 | ATTTAAGGAG | 0.976
104 | GGAATTACCA | 1.07
105 | GTCCCGGG | 1.02
106 | GACACATCTT | 1.02
107 | TGATTTGAAA | 0.999
108 | GGTATGACTC | 0.904
109 | GGTTTAGTGC | 0.985
110 | GATCGTGATC | 1.02
111 | TTGTTTCCTT | 1.05
112 | ATGGTATGCC | 1.06
113 | TTTCAACTTG | 0.944
114 | ATAAACGGT | 0.979
115 | GTTTGGATGT | 0.954

Row | Sequence | switch fluorescence ratio
116 | ATTTGCTCGT | 1
117 | TAGTGTGAAG | 1.03
118 | TAATCGCTTA | 0.977
119 | TAAAATGGCT | 0.968
120 | CTAATAGAGA | 0.962
121 | TTTCTGGTAT | 0.988
122 | ACTTCCCTTC | 2.21
123 | CAGTATGGTC | 0.97
124 | GGTGTGAACG | 1.02
125 | TTTCCTATGT | 1.01
126 | CCTATGTGCG | 0.977
127 | TACTTGACT | 1.08
128 | GAAGTAATG | 1.04
129 | AACAATGTTC | 1.04
130 | AGGTGGGGC | 1.06
131 | CATATTAACT | 0.995
132 | CAGTATATTA | 1
133 | CTTTCTTATG | 0.969
134 | CCTGCTCTGT | 1.05
135 | AGCTTAAGTG | 0.953
136 | TACTTAGCGT | 1.01
137 | AGTGAAGGTC | 0.949
138 | AGGAGCGGCG | 1.01

Row | Sequence | switch fluorescence ratio
139 | ACAATCAACA | 1.03
140 | TTTACAGCCA | 1.01
141 | CAAGATATTA | 1.02
142 | CAAAGTTTAA | 1.03
143 | TACTATTGC | 0.973
144 | GAACCTGGGA | 1.01
145 | GCAGATGGA | 0.989
146 | TCTATTGACG | 0.858
147 | TTAATTGATT | 1.03
148 | AGGCATGTAG | 0.987
149 | AGTGTTGGCA | 1.02
150 | GCGTGTTACC | 1.02
151 | TTTAAATGTG | 0.99
152 | CAATGCTTTC | 1.05
153 | AGTGGATCGA | 0.979
154 | CAGTGTAG | 1.01
155 | CAGTCTTGTA | 1.01
156 | AACAGCGGCG | 0.975
157 | CGTTGCTCGC | 1.05
158 | GGTAACGGTA | 1.01

— the supplement of paper PMC10126150
